The full ranking holds about 81,000 sequences; the median of “one-hybrid fitness for binding parS DNA” is about -0.17, and the highest 2% start at about 0.51. Some of the results follow.
B1: Caulobacter ParB omega fusion; a variant is named by its letters at X, in order, B8GW30 (parent)
chain: MESVVVGEPGMSEGRRGLGRGLSALLGEVDAAPAQAPGEQLGGSREAPIEILQRNPDQPRRTFREEDLEDLSNSIREKGVLQPILVRPSPDTAGEYQIVAGERAWRAAQRAGLKTVPIMVRELDDLAVLEIGIIENVQRADLNVLEEALSYKVLMEKFERTQENIAQTIGKSXSHVANXMRLLXLPDEVQSYLVSGELTAXHARAIAAAADPVALAKQIIEGGLSVRETEALARKAPNLSAGKSKGGRPPRVKDTDTQALESDLSSVLGLDVSIDHRGSTGTLTITYATLEQLDDLCNRLTRGI

Variants of: B1
Experiment: one-hybrid fitness for binding parS DNA (scaled: cognate 1, non-cognate 0); higher = stronger binding
Settings: with parS DNA site
In short: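 Caulobacter ParB libraries with four specificity codons randomised were screened by bacterial one-hybrid selection in the E. coli USO strain, using a HIS3 reporter whose site lies 19 bp from the promoter. Selection ran for 48 hours at 37°C on M9 lacking histidine, with 0.1 mM IPTG and 5 mM 3-AT. Plasmids were Illumina-sequenced before and after selection, three replicate libraries were pooled, and variants with under 10 reads were dropped. Fitness is the log change in each variant's read ratio to wild type, rescaled against the cognate and non-cognate sites.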

Variant	one-hybrid fitness for binding parS DNA
RNEQ	≤ 0.2
MHDC	≤ 0.2
RTVF	≤ 0.2
DPPA	≤ 0.2
SMTP	≤ 0.2
LTMC	≤ 0.2
PCPF	≤ 0.2
VSAT	≤ 0.2
NQPA	≤ 0.2
DPDC	≤ 0.2
PRLQ	≤ 0.2
NQNY	≤ 0.2
AYIY	0.265
HSTF	≤ 0.2
RALG	1.01
RPQI	≤ 0.2
DWFI	≤ 0.2
VMSD	≤ 0.2
WSDT	≤ 0.2
SLRK	≤ 0.2
PGCP	≤ 0.2
KCER	≤ 0.2
VWAI	≤ 0.2
HLFT	≤ 0.2
RSGW	0.233
MALK	≤ 0.2

Variant	one-hybrid fitness for binding parS DNA
SSNS	≤ 0.2
SAFC	≤ 0.2
PVFC	≤ 0.2
PQLL	≤ 0.2
YHQE	≤ 0.2
TASP	≤ 0.2
QHMW	≤ 0.2
MSDF	≤ 0.2
ADPT	≤ 0.2
WFCS	≤ 0.2
QKTQ	≤ 0.2
HIPW	≤ 0.2
KKTD	≤ 0.2
HCCS	≤ 0.2
SVTQ	≤ 0.2
WGPG	≤ 0.2
WTAY	≤ 0.2
TTTL	≤ 0.2
QPTI	≤ 0.2
YNVP	≤ 0.2
SAPM	≤ 0.2
RRLR	≤ 0.2
DECI	≤ 0.2
WAYA	≤ 0.2
KTKP	≤ 0.2
PPEF	≤ 0.2

Variant	one-hybrid fitness for binding parS DNA
TSMC	≤ 0.2
ASFC	≤ 0.2
GQSC	≤ 0.2
CRYV	≤ 0.2
RCPT	0.604
YWNG	≤ 0.2
SIPA	≤ 0.2
YAKD	≤ 0.2
WDPS	≤ 0.2
CVAV	≤ 0.2
NRML	≤ 0.2
FMPR	≤ 0.2
TVKR	≤ 0.2
HKHG	≤ 0.2
NVCL	≤ 0.2
WCAR	≤ 0.2
STGK	≤ 0.2
QVKN	≤ 0.2
LSWV	≤ 0.2
LPKR	≤ 0.2
GVFG	≤ 0.2
QALY	≤ 0.2
QMNE	≤ 0.2
KGFY	≤ 0.2
GYLV	≤ 0.2
STNC	≤ 0.2

Variant	one-hybrid fitness for binding parS DNA
TEKT	≤ 0.2
CMEW	≤ 0.2
VKTS	≤ 0.2
HTGF	≤ 0.2
VFMS	≤ 0.2
LYCC	≤ 0.2
NDDS	≤ 0.2
LDSW	≤ 0.2
RDRI	≤ 0.2
QKQW	≤ 0.2
ISHL	≤ 0.2
RVDS	0.974
SFYR	≤ 0.2
AKWR	≤ 0.2
KRPH	≤ 0.2
EMND	≤ 0.2
RRCA	0.761
SKLG	≤ 0.2
SDNL	≤ 0.2
PRHM	≤ 0.2
IIKC	≤ 0.2
LDHG	≤ 0.2
YYSY	≤ 0.2
TTFG	≤ 0.2
EEPR	≤ 0.2
AAWL	≤ 0.2

Variant	one-hybrid fitness for binding parS DNA
WMWG	≤ 0.2
CCRY	≤ 0.2
PACD	≤ 0.2
YAKF	≤ 0.2
RCSP	≤ 0.2
TEKR	≤ 0.2
DKGG	≤ 0.2
VPLV	≤ 0.2
GARE	≤ 0.2
NRTP	≤ 0.2
CFYS	≤ 0.2
SHEV	≤ 0.2
SVGS	≤ 0.2
THAM	≤ 0.2
QMHW	≤ 0.2
GPPL	≤ 0.2
ASLV	≤ 0.2
NQSG	≤ 0.2
RYPW	≤ 0.2
MECV	≤ 0.2
WLSD	≤ 0.2
DLGA	≤ 0.2
GTVK	≤ 0.2
QDLY	≤ 0.2
PHGP	≤ 0.2
QHIF	≤ 0.2

Variant	one-hybrid fitness for binding parS DNA
SWTT	≤ 0.2
WQKG	≤ 0.2
RFGI	≤ 0.2
HWPG	≤ 0.2
IIGG	≤ 0.2
NNMG	≤ 0.2
CFLY	≤ 0.2
ERRN	≤ 0.2
YHSG	≤ 0.2
FYFT	≤ 0.2
LKAG	≤ 0.2
DIIL	≤ 0.2
YQFT	≤ 0.2
GRGI	≤ 0.2
QTLE	≤ 0.2
NHHY	≤ 0.2
VSSL	≤ 0.2
YQNH	≤ 0.2
YYKW	≤ 0.2
IEPN	≤ 0.2
LMVR	≤ 0.2
DCYC	≤ 0.2
RPRL	≤ 0.2

From a collection of fitness landscapes (doi:10.1016/j.celrep.2020.107928)
